From PubChem BioAssay AID1159614 (National Center for Advancing Translational Sciences (NCATS), 2016)
The whole screen tested about 45,000 compounds, of which about 65 (0.1%) were called active. The call rests on the fitted dose curve; in most records, active means well fitted activation curve with a large enough effect; inconclusive means small, poorly fitted or top-dose-only effect; inactive means no such curve, though single readings can be large or run the other way. The list shows a part of the results.

Target: Galactocerebrosidase (Homo sapiens) (UniProt P54803)
Experiment: A Novel Cell-Based Assay to Identify Small Molecules for B -Galactocerebrosidase; further: 0% is about no effect; nearly all actives have a fitted effect of over 65% in size
Conditions: 145M-Twi-hGALC-G270D cells (Twitcher mouse brain line with human GALC G270D), HMU-beta-Gal fluorescence, 48 h; series mostly up to 57.5 µM; activation: at the top concentration
In short: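 Fluorogenic HMU-b-Gal hydrolysis (0.1 mM final, pH 5.2 citrate-phosphate with 1 mg/mL sodium taurocholate; carbonate stop buffer) measures mutant GALC activity after compound treatment of live 145M-Twi Twitcher brain cells stably carrying human GALC-G270D, with wild-type GALC line alongside; activation sought.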

UniProt P54803, sequence (P54803 whole entry, looked up): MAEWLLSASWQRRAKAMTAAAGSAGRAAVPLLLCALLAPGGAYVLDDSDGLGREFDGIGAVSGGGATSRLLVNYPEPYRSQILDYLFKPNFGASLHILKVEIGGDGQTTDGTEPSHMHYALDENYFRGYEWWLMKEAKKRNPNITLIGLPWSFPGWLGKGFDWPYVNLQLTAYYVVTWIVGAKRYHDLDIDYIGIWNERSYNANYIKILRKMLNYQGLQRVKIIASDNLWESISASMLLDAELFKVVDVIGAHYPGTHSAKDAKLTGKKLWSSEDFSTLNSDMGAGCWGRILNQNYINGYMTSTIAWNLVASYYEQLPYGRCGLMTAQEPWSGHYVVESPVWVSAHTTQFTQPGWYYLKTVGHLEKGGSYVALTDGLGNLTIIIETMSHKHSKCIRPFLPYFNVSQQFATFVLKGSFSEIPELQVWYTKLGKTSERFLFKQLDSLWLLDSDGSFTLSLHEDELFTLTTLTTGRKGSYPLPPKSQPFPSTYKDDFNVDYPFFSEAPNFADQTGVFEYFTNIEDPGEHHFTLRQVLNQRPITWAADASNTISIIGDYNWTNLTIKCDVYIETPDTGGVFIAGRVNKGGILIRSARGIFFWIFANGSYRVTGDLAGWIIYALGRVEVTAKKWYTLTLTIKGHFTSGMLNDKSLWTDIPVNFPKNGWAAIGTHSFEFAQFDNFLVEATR

activation, inactive:
COc1ccccc1CNC(=O)c1cnc(N(C)C)nc1 -0.98%
CCCSc1oc(-c2ccco2)nc1S(=O)(=O)c1ccc(Cl)cc1 -32.7%
CC1=C(c2ccc(C(C)C)cc2)S(=O)(=O)NC1=NCc1ccccc1C -15.6%
CC1CCN(C(=O)CSc2c3c(nc4ccc(Cl)cc24)CCCC3)CC1 3.21%
CN(C)CCN(C(=O)c1ccco1)c1nc2c(F)cc(F)cc2s1 -6.13%
O=C(COc1ccc(F)cc1)Nc1nnc(S(=O)(=O)N2CCc3ccccc32)s1 -50.9%
COc1ccc(S(=O)(=O)N(CC(=O)Nc2ccc(F)c(Cl)c2)c2ccc(C)cc2)cc1OC -17.6%
CCOc1ccc(N(Cc2ccccc2)C(=O)c2nc(SCC)ncc2Cl)cc1 -14.2%
Cc1cccc(NC(=O)CSc2nc3ccccc3nc2N2CCC(C)CC2)c1 -8.73%
Cc1nc2c3ccccc3nc(NNC(=O)CCC(=O)N3CCN(c4cccc(Cl)c4)CC3)n2n1 -16.6%
Cc1ccc(N2CC(C(=O)NCCS(=O)(=O)N3CCN(c4ccccc4F)CC3)CC2=O)cc1 (stereo not drawn) -9.92%
Cc1ccc(NC(=O)CSc2nc3ccc(Br)cc3[nH]2)c(C)c1 -6.32%
Cc1ccc(Nc2cc(C)nc(-n3nc(C)cc3C)n2)cc1 -5.9%
O=C(Nc1ccc(OC(F)(F)F)cc1)C1CCN(S(=O)(=O)c2ccc3[nH]c(=O)ccc3c2)CC1 -8.99%
COc1cccc2c1C(=O)c1c(O)c3c(c(O)c1C2=O)C[C@@](O)(C(=O)CO)C[C@@H]3O[C@H]1C[C@H](N)[C@H](O)[C@H](C)O1 -9.78%
O=C(NC1CCCCC1)c1ccc2c(c1)sc1nc(-c3ccc(F)cc3)cn12 -9.95%
CCOCCc1nnc(NC(=O)C(=O)c2cc(C)n(-c3cccc(C)c3)c2C)s1 -14.3%
Cc1ccc(-c2noc(CNC(=O)COc3cc(C)c(Br)c(C)c3)n2)cc1 -15.1%
Cn1cnc(S(=O)(=O)N2CCC(C(=O)Nc3ccc(F)cc3F)CC2)c1 -14.3%
CCOc1ccc(CNC(=O)c2ccc3c(c2)sc2nc(-c4ccccc4)cn23)cc1 -19.8%
O=C(NC1CCCCC1)c1ccc2c(c1)N(Cc1cccc(F)c1)C(=O)c1ccccc1S2 -3.6%
COc1ccc2nc(NC(=O)c3nc(S(=O)(=O)Cc4ccccc4F)ncc3Cl)sc2c1 -19%
Cc1ccc(-n2nc(C(=O)N3CCN(c4ccc(F)cc4)CC3)c(=O)n(C)c2=O)cc1 -15.9%
COC(=O)c1ccc(CSc2nc3c([nH]c4ccccc43)c(=O)n2-c2ccc(F)cc2)o1 3.31%
O=C(Cn1c(=O)n(-c2ccccc2)c(=O)c2ccc(C(=O)NCc3ccc4c(c3)OCO4)cc21)Nc1ccc(F)cc1 5.2%
COc1cc(OC)c(NC(=O)Cn2c(=O)c(C(F)(F)F)nc3ccccc32)cc1Cl 4.97%
CCc1cccc(NC(=O)Cn2c(=O)n(-c3ccccc3C)c(=O)c3c2c2cc(C)ccc2n3C)c1 -1.46%
COc1ccc(NCc2cc3cc4c(cc3n(CC(=O)Nc3cccc(F)c3)c2=O)OCO4)cc1 0.0932%
Cc1cccc(N2CCN(S(=O)(=O)c3cn(C)c(C)n3)CC2)c1C -9.88%
CCOc1ccccc1C(=O)Oc1c(S(=O)(=O)c2ccc(C)cc2)c(C)nn1-c1ccccc1 2.66%
CCCCN(C)CCCNC(=O)Cn1ncc2c3ccccc3n(Cc3cccc(Cl)c3)c2c1=O -21.1%
Cc1ccccc1CN1CCc2nc(N3CCN(c4ncccn4)CC3)ncc2C1 -12.5%
Cc1ccc(CNC(=O)c2ccc(CS(=O)(=O)Cc3ccc(F)cc3)o2)cc1 -12.2%
CCCCc1nn2c(=O)cc(COC(=O)c3cccc(NC(=O)c4cccc(Cl)c4)c3)nc2s1 -4.78%
COc1ccc(CCCc2nnc(SCC(=O)Nc3cccc(C)c3)o2)cc1C -18.7%
O=C(Nc1ccc(F)cc1F)c1cccc2c1C(=O)N(C1CCCCC1)C2 -9.14%
Cc1cccc(CSc2nc3c(c(=O)[nH]2)CCC3)c1 -7.81%
COCCNc1ccc(-c2nc(-c3ccncc3)no2)cc1[N+](=O)[O-] -6.33%
COc1cccc(-n2c(SCC(=O)N3CCc4ccccc43)nc3c([nH]c4ccccc43)c2=O)c1 9.99%
COc1cc(NC(=O)CSc2nc(-c3cccs3)cc(C(F)(F)F)n2)cc(OC)c1OC -10.6%
COc1ccc(-c2cc(C(F)(F)F)nc(SCC(=O)N3CCCCC3)n2)cc1OC -10.1%
COc1ccc(-c2nc(SCC(=O)Nc3ccccc3)c(-c3ccc(F)cc3)[nH]2)cc1OC -15%
CCc1cccc(C)c1NC(=O)C(CC)n1nc(C)c2c(C)n(-c3ccccc3)nc2c1=O (stereo not drawn) -22.4%
CCS(=O)(=O)N1CCc2cc(C(=O)N3CCN(c4ccc(OC)cc4)CC3)ccc21 -18.3%
COc1ccc(OC)c(S(=O)(=O)N2Cc3ccccc3CC2C(=O)Nc2ccc(C)cc2C)c1 (stereo not drawn) -3.9%
CCc1ccc(C2CC(=O)c3c([nH]c(C(=O)OC4CCC(C)CC4)c3C)C2)cc1 (stereo not drawn) -23.9%
CNC(=O)c1ccc2nc(CCc3ccccc3)oc2c1 -13.5%
COc1ccc(S(=O)(=O)NCc2cccn2Cc2cccc(C)c2)cc1Cl -40.9%
COc1ccc(NC(=O)c2cc(C(C)=O)n3ccccc23)cc1 -17.4%
COc1ccc(NC(=O)c2oc3ccc(S(=O)(=O)N4CCCCC4)cc3c2C)cc1Cl -15.5%
Cc1ccc2c(c1)C(=O)C(=O)N2Cc1ccc(OCCC(C)C)cc1 -38.6%
Cc1ccc2nc(NC(=O)c3nc(SCc4ccccc4F)ncc3Cl)sc2c1 -14.7%
COCCn1c(=O)[nH]c2cc(C(=O)N3CCN(c4ccc(Cl)cc4)CC3)ccc2c1=O 0.883%
Cc1ccc(CN2CCC(CNC(=O)c3cnn(-c4ccccc4)c3C3CCN(C(=O)OC(C)(C)C)CC3)CC2)cc1 -13%
Cc1nc(-c2ccc(Cl)cc2)sc1CCNC(=O)C(=O)Nc1ccc2c(c1)OCCO2 -0.41%
O=C(CSc1nc(=O)n(Cc2cccnc2)c2c1CCC2)Nc1cccc(Cl)c1 -9.73%
O=C(O)c1ccc(NCc2nc3ccccc3n2CCOc2ccccc2Cl)cc1 -6.77%
CSc1ncc(Cl)c(C(=O)Nc2cc(C(F)(F)F)ccc2Cl)n1 -12.4%
CCOc1cc2[nH]c(=O)n(Cc3ccc(C(=O)N4CCN(c5ccccc5)CC4)cc3)c(=O)c2cc1OCC 0.739%
COc1cc2c(=O)n(Cc3ccco3)c(=O)n(CC(=O)Nc3ccc(F)cc3)c2cc1OC 7.23%
COc1ccc(CNC(=O)CC(C)n2nc(C)cc2C)cc1 (stereo not drawn) -19.9%
COc1ccc(N2CC(NC(=O)C(=O)c3c[nH]c4ccccc34)CC2=O)cc1 (stereo not drawn) -10.2%
CCN(CC)c1cc(C)c2cc(NC(=O)/C=C/c3ccccc3Cl)ccc2n1 -5.32%
Cc1ccc(-c2nn(-c3ccc(F)cc3F)c3c2cnc2ccc(F)cc23)cc1 -7.15%
CCOC(=O)N1CCC(NC(=O)c2cnn(-c3ccc(F)cc3)c2-n2cccc2)CC1 -3.18%
COc1ccc(N(C)C(=O)c2nn(-c3ccc(C)cc3)c(=O)n(C)c2=O)c(OC)c1 -14.4%
Cc1cc(C)cc(NC(=O)N2CCC(C(N)=O)(N3CCCCC3)CC2)c1 -15.4%
CCCCn1cc(S(=O)(=O)c2ccccc2)c(=O)c2cc(F)c(N3CCN(CCC)CC3)cc21 -7.46%
CCN1c2ccccc2-n2cccc2C12CCN(C(=O)Nc1ccccc1Br)CC2 -6.53%
CC1CCCN(c2ncnc3c2cnn3-c2ccc(F)cc2)C1 (stereo not drawn) -13.6%
CCOCCn1ccc2c(OCC(=O)NCc3ccc(F)cc3)cccc2c1=O -14.6%
O=C(CSc1ncc2c(n1)-c1cc(Cl)ccc1N(Cc1ccccc1)S2(=O)=O)Nc1ccc(F)cc1F 3.23%
O=c1c(N2CCN(c3ccccc3)CC2)csc2ccc(Cl)cc12 -5.76%
CC(C)Oc1ccc(C(=O)N2CCN(c3nc4c(F)cc(F)cc4s3)CC2)cc1 -15.7%
O=C(CCSCc1cccc(Cl)c1)NCc1ccccc1Cl -7.61%
COc1ccc(NC(=O)CSC2=Nc3ccccc3C3=NC(CC(=O)NCc4ccccc4OC)C(=O)N23)cc1Cl (stereo not drawn) -19.5%
COc1ccc(-c2nc3c4ccccc4n(CC(=O)Nc4ccc(C(C)C)cc4)c(=O)n3n2)cc1 2.33%
Cc1ccccc1-n1c(SCC(=O)Nc2ccc(Cl)cc2Cl)nc(O)cc1=O 3.79%
COc1ccc(C2CC(=O)N(Cc3ccccc3C)c3c2c(C)nn3-c2nc(C)cc(C)n2)c(OC)c1 (stereo not drawn) -12.6%
COc1ccc(-c2noc(-c3ccc(N4CCN(C)CC4)c([N+](=O)[O-])c3)n2)cc1 -9.49%
COc1ccc(S(=O)(=O)c2c(O)c(C)cc(NS(=O)(=O)c3ccc(Cl)cc3)c2C(C)C)cc1 -10%
Cc1cccc(N(C)S(=O)(=O)c2ccc(-c3cc(C)no3)s2)c1 -26.4%
CC(=O)N1CCc2c(sc3c2c(=O)n(-c2ccc(F)cc2)c(=O)n3Cc2cc(C)ccc2C)C1 -13.8%
Cc1ccc(S(=O)(=O)N2CCc3cc(C(=O)N(C)Cc4ccccc4)ccc32)cc1 -10.7%
CCc1sc(Nc2cccc(C)c2)nc1-c1cc2cccc(OC)c2oc1=O -9.32%
OCCOCCN1CCN(C2=Nc3ccccc3Sc3ccccc32)CC1 -8.88%
COc1cc(C(=O)N2CCN(CCc3ccncc3)CC2)cc(OC)c1OC -8.73%
COc1cccc(-n2c(=O)c3c(C)c(C(=O)N(C)C)sc3n(Cc3cccc(C)c3)c2=O)c1 4.94%
CCc1cc(S(=O)(=O)O)c2cc(C(C)C)cccc1-2 -9.19%
COc1ccc(CCN2CCC(CNC(=O)c3cnn(-c4ccc(C)cc4)c3C3CCN(C(=O)OC(C)(C)C)CC3)CC2)cc1 -9.08%
COc1ccc(-c2nc(C)c(CCNC(=O)C(=O)Nc3ccccc3F)s2)cc1 -11.5%
Cc1ccc(NC(=O)Cn2c(=O)n(CC3CCC(C(=O)NC(C)C)CC3)c(=O)c3sccc32)cc1 (stereo not drawn) -6.54%
COc1ccccc1-n1nc(-c2ccccc2)c2cnc3c(F)cc(F)cc3c21 -3.37%
